Self-cleavage data for 167 variants are collected here from the RNAGym collection of RNA variant scans (doi:10.7554/elife.90254).

B1: LINE1-mini (parent)
chain: GGCAGAGCUCAACACAGCGUGGCAAAGUGGCUGUGGCUAGACUGCC

The source gives no read counts; variants with many changes may rest on few reads.

This data set covers variants of B1. Nature of the data set: self-cleavage, relative activity (ratio to wild type); higher = more cleavage; in vitro, sequencing; the parent is a self-cleaving ribozyme.
On to C18A G21U G33C C37A C42U C46A, for which the self-cleavage is 0.

For the variant C18A U20A A26U G29A C37A, the self-cleavage amounted to 0.03.

As for C18A G27A U28G, the self-cleavage is 1.37.

For the variant C18A G19A G22C, the self-cleavage came to 0.45.

As for C18A G19A G22A, the self-cleavage came out at 0.58.

For C18A G21U U32G, the self-cleavage amounted to 0.

Take C18A G22C C37G C42U: the self-cleavage was found to be 0.03.

As for C18A G33A G44C, the self-cleavage amounted to 0.03.

Take C18U G19A G22A A25G G35C C42A: the self-cleavage is 0.01.

For C18G G40A A41U, the self-cleavage worked out at 0.16.

Turning to C18A G33C C42A, the self-cleavage was determined as 0.04.

Regarding C18A G33C C42G, the self-cleavage turned out to be 0.01.

Regarding C18U A26U G35A, the self-cleavage was found to be 0.03.

As to C18U G21U G22U A26G, the self-cleavage was determined as 1.61.

For the variant C18A U32G U34A, the self-cleavage stood at 0.04.

For C18A G29A C42G U43C C45A, the self-cleavage amounted to 0.01.

Regarding C18A G40U C45A, the self-cleavage stood at 0.03.

Regarding C18G G21U C23A, the self-cleavage amounted to 0.8.

C18G G21A A24G: the self-cleavage was 2.32.

Consider C18G G22A A25U G35A A41G, for which the self-cleavage turned out to be 0.02.

Turning to C18A G35U C46U, the self-cleavage is 0.04.

Regarding C18A G21U G36U C46A, the self-cleavage was 0.35.

Turning to C18U A24C A25U G40A, the self-cleavage was 0.04.

Turning to C18A G35U C42G, the self-cleavage was 0.04.

Regarding C18U U28C G29A G30A G35C C45G, the self-cleavage turned out to be 0.06.

Turning to C18G U20A G40U, the self-cleavage turned out to be 0.01.

With C18G A24C U32C, the self-cleavage amounted to 0.02.

On to C18G G22A G36A, for which the self-cleavage turned out to be 0.02.

As for C18U G33U A39U, the self-cleavage was determined as 0.08.

In the case of C18U U20A U32G, the self-cleavage was 0.04.

Take C18U G19C U28G C42G: the self-cleavage is 0.

In the case of C18G G22U A24U A25C, the self-cleavage was 0.09.

Turning to C18A G30U A41U, the self-cleavage came to 0.38.

As to C18A G21A G22U G40A A41C G44U, the self-cleavage is 0.01.

C18G C23G G30U C45U: the self-cleavage worked out at 0.21.

On to C18A G30A U38C G44U, for which the self-cleavage is 0.01.

As to C18U C31A C46A, the self-cleavage was found to be 0.04.

As for C18U G35U G36U U38C A41C, the self-cleavage was 0.09.

For C18U G35C G40U C42G, the self-cleavage came out at 0.02.

With C18U U32C A39U, the self-cleavage amounted to 0.37.

For the variant C18U G22C C46G, the self-cleavage is 0.2.

For the variant C18G G19A C31A, the self-cleavage was determined as 0.14.

Consider C18G U20A G35A C46G, for which the self-cleavage came out at 0.02.

As to C18A U20A A41G, the self-cleavage stood at 0.21.

In the case of C18G A25G G35A G40U, the self-cleavage turned out to be 0.45.

In the case of C18U C23G A39C, the self-cleavage stood at 0.18.

For C18U C23A C45G, the self-cleavage came to 1.27.

On to C18G G30U C37A C42A, for which the self-cleavage came out at 0.03.

Turning to C18U C23G G29U C42G, the self-cleavage came out at 0.01.

C18G U20G C23A U38C G44U: the self-cleavage was 0.

As to C18G U20A U28A G33U, the self-cleavage came to 0.11.

C18U C23G G33U C45A: the self-cleavage stood at 0.02.

In the case of C18U A39C A41U, the self-cleavage came to 0.43.

Consider C18G G19A C23U C42A, for which the self-cleavage came out at 0.02.

For the variant C18G U34G C45G C46G, the self-cleavage came out at 0.02.

Turning to C18A G21C A25G G29A U34G, the self-cleavage was found to be 0.03.

Turning to C18U G33U U38G C45A, the self-cleavage is 0.01.

Turning to C18G G21C U28G U38G A41G, the self-cleavage came out at 0.01.

As for C18A G22U C42G, the self-cleavage amounted to 0.02.

For the variant C18A G36C C42A, the self-cleavage was determined as 0.

Regarding C18U G22U U28A, the self-cleavage is 1.35.

For C18U C37U A41U G44A, the self-cleavage was 0.04.

On to C18G A24U A26C U32A, for which the self-cleavage amounted to 0.01.

As for C18U G19U G22U C23A A24C U43G, the self-cleavage turned out to be 0.

Regarding C18U U20C C31U C37U, the self-cleavage stood at 0.04.

Take C18U U38G G40U: the self-cleavage was 0.2.

In the case of C18U C23G A24U G35U, the self-cleavage was 0.06.

For the variant C18U G33A C42U C45A, the self-cleavage worked out at 0.02.

For C18A U28G G44U C45A, the self-cleavage is 0.02.

As to C18A G21A C23U U43G C46U, the self-cleavage worked out at 0.03.

Regarding C18A G30U C31U, the self-cleavage was found to be 0.05.

Take C18G U20G C23U G44A: the self-cleavage stood at 0.24.

Turning to C18U G21A G36U, the self-cleavage worked out at 0.06.

As to C18A G19U A39G, the self-cleavage is 0.04.

For C18A G33C C46A, the self-cleavage came out at 0.02.

With C18U C23U G29U G36U, the self-cleavage was 0.07.

C18G G21C A25G C31A G44U: the self-cleavage stood at 0.03.

With C18U G21A A26C, the self-cleavage was found to be 0.63.

For the variant C18A G21U A25C U34G, the self-cleavage was found to be 0.05.

In the case of C18A U38G C42A U43C, the self-cleavage stood at 0.

Turning to C18U G22A U28C U43A, the self-cleavage was 0.06.

For the variant C18U G33A G36A, the self-cleavage turned out to be 0.03.

Consider C18A G29C C31G C37G A39G, for which the self-cleavage came out at 0.01.

As to C18U U34C G35A, the self-cleavage amounted to 0.02.

As to C18G G19U G21C C23A G30A G44U, the self-cleavage amounted to 0.07.

Turning to C18U G19U A41C G44U, the self-cleavage is 0.02.

Turning to C18G C42G G44U C45G, the self-cleavage amounted to 0.04.

Regarding C18A G19A G44C, the self-cleavage was 0.39.

Take C18G G21A C42A: the self-cleavage worked out at 0.04.

Turning to C18U G22A G27C U38C, the self-cleavage was 0.04.

As to C18U G19C U43C, the self-cleavage is 0.07.

In the case of C18U U34A C37G C42G, the self-cleavage came out at 0.01.

With C18U U20G G35A G36C C45G, the self-cleavage came out at 0.11.

On to C18U U34G C42U C46U, for which the self-cleavage turned out to be 0.01.

As for C18G A26U G44C, the self-cleavage came out at 0.06.

On to C18G G27U C31U, for which the self-cleavage was 0.04.

Regarding C18U G19A C23A G33A G36U C37A U38G C46U, the self-cleavage turned out to be 0.

With C18U G21C G44U, the self-cleavage is 0.15.

With C18A G29U G36C C45A, the self-cleavage turned out to be 0.03.

Turning to C18G G30C U32A, the self-cleavage was determined as 0.38.

With C18A G33U C45U, the self-cleavage is 0.02.

For C18G G30C C46G, the self-cleavage stood at 1.46.

For C18G A26U U28A, the self-cleavage turned out to be 1.46.

In the case of C18G A25G U28A U32A, the self-cleavage amounted to 0.06.

For C18U G22C A25G A39G, the self-cleavage came to 0.16.

On to C18U G19A G29U, for which the self-cleavage is 0.12.

For C18G G29U C46G, the self-cleavage is 0.37.

In the case of C18G G21A G22C, the self-cleavage was found to be 0.58.

In the case of C18A G19C G40A C45U, the self-cleavage was 0.02.

Turning to C18U A26G C31U U32A C42U, the self-cleavage is 0.06.

For C18A G27A G33A, the self-cleavage is 0.02.

C18A G30U C37A U38A A41U U43A: the self-cleavage was found to be 0.

On to C18A G21C C42U, for which the self-cleavage amounted to 0.03.

For the variant C18A G21C C42G, the self-cleavage is 0.03.

As for C18U A26C A39G, the self-cleavage stood at 0.02.

On to C18A G30U C42A, for which the self-cleavage was 0.2.

In the case of C18U G35U A41U, the self-cleavage was found to be 0.09.

For C18G U32C C37U, the self-cleavage came out at 0.04.

C18G A24C A25C G33A U34G: the self-cleavage amounted to 0.23.

As for C18A U20G U34C, the self-cleavage was determined as 0.01.

On to C18U A26G G30C, for which the self-cleavage was 0.29.

Consider C18U A26G U34A, for which the self-cleavage is 0.03.

As to C18G G22U U34A G40A, the self-cleavage is 0.01.

For the variant C18G G33U G36A U43C, the self-cleavage was 0.03.

For C18G G29U A41C, the self-cleavage was found to be 0.1.

As to C18G G21U G22A, the self-cleavage stood at 0.22.

With C18U G30A G35C, the self-cleavage is 0.08.

On to C18A G21C G35U, for which the self-cleavage worked out at 0.01.

As for C18A G21C G35A, the self-cleavage was found to be 0.02.

Consider C18G G22U G30A, for which the self-cleavage amounted to 1.19.

On to C18U G33C G36C G40C, for which the self-cleavage was 0.01.

On to C18A G19U U32A C37A, for which the self-cleavage amounted to 0.

Take C18U G27U U43A: the self-cleavage was determined as 0.01.

C18G C42G G44C: the self-cleavage is 0.03.

Take C18A G21C A26C C45A: the self-cleavage turned out to be 0.08.

Take C18A G19U G27U G36U: the self-cleavage was found to be 0.04.

On to C18A G19U C31A U38G, for which the self-cleavage was found to be 0.

Turning to C18G C23A A39G, the self-cleavage is 0.05.

Regarding C18U U43C C45U, the self-cleavage is 0.02.

Take C18G U28C G30C: the self-cleavage was 0.48.

With C18A G21U A24C C31A A41U, the self-cleavage came to 0.02.

For the variant C18A G21U G27A, the self-cleavage came out at 0.38.

Consider C18U U20G G36C C46G, for which the self-cleavage was found to be 0.02.

For C18U A25G A41C G44U, the self-cleavage turned out to be 0.04.

Regarding C18U G21U A25C, the self-cleavage was 0.41.

In the case of C18U G27U G30C C31A G40C, the self-cleavage stood at 0.02.

Regarding C18U A24C G29A G33U, the self-cleavage amounted to 0.02.

Take C18U G19C C42A: the self-cleavage is 0.16.

Consider C18U A25G G35C A39G, for which the self-cleavage worked out at 0.02.

As for G19A A24G C45A, the self-cleavage turned out to be 1.06.

For C18G G19U G44A, the self-cleavage worked out at 0.07.

Turning to C18U U32A U38G G40C, the self-cleavage came out at 0.01.

C18U C31A A39G: the self-cleavage worked out at 0.13.

C18G U20G G36U: the self-cleavage stood at 0.07.

For C18U G19A U38G A39G C46A, the self-cleavage stood at 0.01.

For the variant C18U G27U A41C, the self-cleavage is 0.01.

For C18A G22C G27A, the self-cleavage is 0.59.

In the case of C18G U38C C42A G44C, the self-cleavage was determined as 0.02.

For the variant C18G G22U C42A, the self-cleavage turned out to be 0.01.

Take C18G A26G U43G: the self-cleavage stood at 0.02.

On to C18G G19U A25G C42A, for which the self-cleavage stood at 0.05.

Consider C18U C23U G36A, for which the self-cleavage came out at 0.11.

For the variant C18A G22C A39G, the self-cleavage came out at 0.09.

Turning to C18A U38G C42A, the self-cleavage stood at 0.01.

On to C18U U28C C37G G44A, for which the self-cleavage stood at 0.06.

With C18G U28G C42A C45G, the self-cleavage was found to be 0.02.

As to C18G G21C G27U G30A, the self-cleavage is 0.24.
